PubChem BioAssay AID1460 (National Center for Advancing Translational Sciences (NCATS), 2008)
Out of some 270,000 compounds screened, about 5,800 (2.1%) were called active. Inconclusive results, whose numbers are uncertain, are shown with a selection of clear calls. Calls follow the shape of the dose curve; as a rule, active = well fitted inhibition curve with a large enough effect; inconclusive = small, poorly fitted or top-dose-only effect; inactive = flat fitted curve, though single readings scatter. Potencies of inconclusive entries are doubtful fits and often do not repeat.

Target: Microtubule-associated protein tau (Homo sapiens) (UniProt P10636)
Sequence of UniProt P10636 (P10636 whole entry, looked up): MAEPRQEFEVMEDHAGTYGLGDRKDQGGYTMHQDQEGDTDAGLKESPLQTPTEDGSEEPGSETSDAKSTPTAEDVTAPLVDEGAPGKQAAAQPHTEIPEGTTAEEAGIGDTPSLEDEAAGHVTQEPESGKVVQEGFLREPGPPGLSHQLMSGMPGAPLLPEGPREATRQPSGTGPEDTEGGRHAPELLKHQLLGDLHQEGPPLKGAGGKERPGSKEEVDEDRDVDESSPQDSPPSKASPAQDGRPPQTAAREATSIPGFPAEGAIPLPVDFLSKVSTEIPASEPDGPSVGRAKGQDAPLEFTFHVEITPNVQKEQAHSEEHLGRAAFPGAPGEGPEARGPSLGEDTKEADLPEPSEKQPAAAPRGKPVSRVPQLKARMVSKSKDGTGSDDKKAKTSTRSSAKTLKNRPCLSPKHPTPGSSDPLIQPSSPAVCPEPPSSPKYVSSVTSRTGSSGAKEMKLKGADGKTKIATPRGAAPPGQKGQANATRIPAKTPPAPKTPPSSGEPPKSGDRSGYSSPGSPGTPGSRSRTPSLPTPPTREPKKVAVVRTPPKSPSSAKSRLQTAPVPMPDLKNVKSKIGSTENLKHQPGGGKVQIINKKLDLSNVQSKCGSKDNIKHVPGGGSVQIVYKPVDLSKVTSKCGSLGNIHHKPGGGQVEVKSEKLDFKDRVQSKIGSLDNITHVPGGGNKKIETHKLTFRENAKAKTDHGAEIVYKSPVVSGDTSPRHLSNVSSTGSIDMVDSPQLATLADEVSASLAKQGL
Test: qHTS for Inhibitors of Tau Fibril Formation, Thioflavin T Binding; also: nearly all actives have a fitted effect of over 55% in size
Conditions: recombinant tau K18 P301L (four-repeat tau fragment), heparin-induced fibrillization, ThT fluorescence; series mostly up to 57.4 µM; activity, negative = inhibition: at the top concentration
In short: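 Heparin-induced (20 uM) aggregation of recombinant human K18 P301L tau, 15 uM unlabeled with 0.24 uM labeled, pH 7 acetate buffer, 6 hr at 37 C with compound. Fibrils quantified by 30 uM ThT fluorescence after 1 hr ambient incubation.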
% is scaled to controls: 0 for no effect and ±100 for the full control effect; potency is read from the fitted curve at half-maximal effect; tags tell the direction and shape of the fitted curve.

SMILES | activity, negative = inhibition | Potency
COc1ccc(-c2oc(NC(=O)c3ccc(C)cc3)c(C#N)c2-c2ccc(OC)cc2)cc1 | inactive: -10.3% | 
CC1(C)Oc2ccc3ccc(=O)oc3c2CC1O (stereo not drawn) |  | inconclusive: 7.08 µM [inhibitor, single point]
COc1ccc(OC)c(Nc2nc(C3CC3)nc3c2nnn3Cc2ccccc2)c1 | inactive: -10.8% | 
COc1ccc(C(C)=O)cc1COC(=O)c1cnc(Cl)c(Cl)c1 | inactive: -17.4% | 
COc1ccc(C)cc1NC(=O)C(NCC1CCCO1)c1ccccc1 (stereo not drawn) | inactive: 6.3% | 
COc1cc(/C=C(\C#N)C(=O)c2c[nH]c3ccccc23)cc(OC)c1O |  | active: 15.8 µM
Cc1ccc(N=Cc2sc(O)c3ccccc23)c(C)c1 |  | inconclusive: 14.1 µM [inhibitor, partial curve]
O=C(NC1=NCCS1)c1cc(-c2cccc(Br)c2)nc2ccccc12 |  | inconclusive: 25.1 µM [inhibitor, single point]
CCOC(=O)c1cc2c(nc1NC(=S)Nc1ccccc1)CC(C)(C)OC2 | inactive: -4.32% | 
CCCCCCCNC(=O)c1ccc(N2CCC3(CC2)OCCO3)c([N+](=O)[O-])c1 |  | inconclusive: 10 µM [inhibitor, partial curve]
COc1ccccc1/C=N/NC(=O)C1=NNC(c2ccccc2)(c2ccccc2)C1 |  | inconclusive: 31.6 µM [inhibitor, single point]
CCOC(=O)c1[nH]c(C)c(/C=N/O)c1C | inactive: -2.54% | 
CCCCn1c(SCC(=O)Nc2cc(NC(=O)c3ccco3)ccc2C)nc2ccccc2c1=O |  | inconclusive: 28.2 µM [inhibitor, single point]
COc1ccc(C(=O)Nc2nnc(CCS(=O)(=O)c3ccc(C)cc3)s2)cc1 | inactive: 9.96% | 
Cc1ccccc1Nc1c(-c2ccc(N3CCOCC3)cc2)nc2ccccn12 |  | inconclusive: 10 µM [inhibitor, partial curve]
Cc1c(C(=O)N2CCN(Cc3ccccc3)CC2)sc2ncnc(N3CCOCC3)c12 | inactive: -13% | 
Cc1ccc(F)c(NC(=O)/C(C#N)=C(\O)c2ccc(C(C)(C)C)cc2)c1 |  | inconclusive: 20 µM [inhibitor, single point]
COC(=O)C1=C(C)NC(=O)/C1=C\c1cc(C)n(-c2cc(C)cc(C)c2)c1C |  | active: 20 µM
COc1ccc(-c2nc(SCC(=O)Nc3ccc4c(c3)OCCO4)c(-c3ccc(C)cc3)[nH]2)cc1OC |  | inconclusive: 25.1 µM [inhibitor, single point]
CCOc1ccc2nc(N/C(N)=N/C(=S)Nc3ccc(C)c(C)c3)nc(C)c2c1 |  | inconclusive: 7.08 µM [inhibitor, full curve]
CC(C)(C)C1CCc2nc(NC(=O)Cc3cn4ccsc4n3)sc2C1 (stereo not drawn) |  | inconclusive: 25.1 µM [inhibitor, single point]
Clc1ccc(-c2nc(-c3ccccn3)no2)cc1Cl |  | inconclusive: 12.6 µM [inhibitor, partial curve]
COc1ccccc1CNC(=O)CCC1N=C2c3ccccc3N=C(SCc3ccc(C)cc3C)N2C1=O (stereo not drawn) |  | inconclusive: 31.6 µM [inhibitor, single point]
N=c1n(Cc2ccccc2)c2ccccc2n1CC(O)COc1ccc(Cl)cc1Cl (stereo not drawn) | inactive: 9.85% | 
COc1ccc2c(C)c(C(=O)O)oc2c1 | inactive: -1.57% | 

SMILES | activity, negative = inhibition | Potency
Cn1ccnc1SCC(=O)N(C1CCCCC1)C1CCCCC1 | inactive: -14.9% | 
O=[N+]([O-])c1cccc(/C=C/c2nc3ccc([N+](=O)[O-])cc3[nH]2)c1 |  | inconclusive: 4.47 µM [inhibitor, full curve]
C/C=C1/NN(CCCN2CCN(c3cccc(Cl)c3)CC2)C(=O)N1CCOc1ccccc1 | inactive: -17.5% | 
C[n+]1ccc(/C=C/c2ccc3ccccc3c2)cc1 |  | inconclusive: 22.4 µM [inhibitor, single point]
Cc1ccc2nc3sc(C(=O)NCCCN(C)c4ccccc4)cc3cc2c1 |  | inconclusive: 3.16 µM [inhibitor, full curve]
CC1=C(/C=C/C(=C/C=C/C(C)=C/C(=O)O)c2ccc(C)cc2)C(C)(C)CCC1 |  | inconclusive: 28.2 µM [inhibitor, partial curve]
CCOC(=O)c1ccc(N=Nc2c(C)c(C#N)c(O)[nH]c2=O)cc1 |  | active: 1.41 µM
O=C1CC(C(=O)Nc2ccccc2)S/C(=N\NC(=O)c2ccccc2Cl)N1 (stereo not drawn) | inactive: 0.988% | 
O=C(NCC(=O)N(Cc1ccccc1)C(C(=O)NC1CCCC1)c1ccncc1)c1ccco1 (stereo not drawn) | inactive: 12.4% | 
CCn1c(=N)n(CC(O)COc2cccc(C)c2)c2ccccc21 (stereo not drawn) |  | inconclusive: 0.0794 µM [activator, full curve, poor fit]
COC(=O)[C@@]1(Cc2ccc(F)cc2)[C@@H]2[C@@H](CC(=O)[C@H]2CC(=O)C(=O)N2CCCC2)CN1C(=O)c1ccccc1 |  | inconclusive: 35.5 µM [inhibitor, partial curve, poor fit]
S=C(NCc1ccc2c(c1)OCO2)NCc1ccco1 |  | inconclusive: 17.8 µM [inhibitor, single point]
Cc1ccc(C(=O)NC2=NC(c3ccc(C)cc3)CC(=O)N2)cc1 (stereo not drawn) | inactive: 5.14% | 
CC(C)Oc1ccc(C(=O)Nc2ccc([N+](=O)[O-])cc2)cc1 |  | inconclusive: 2.51 µM [inhibitor, partial curve]
COc1ccc(C2CC(c3cccs3)=NN2C(=O)c2ccco2)cc1OC (stereo not drawn) | inactive: -23.1% | 
CC1CCCC(NC(=S)Nc2cccc(S(=O)(=O)N(C)C)c2)C1C (stereo not drawn) | inactive: 3% | 
COc1cc(C2CC(=O)C=C(O)C2)cc(OC)c1OC (stereo not drawn) |  | inconclusive: 25.1 µM [inhibitor, single point]
CC1CC(=O)C2=C(C1)OC(N)=C(C#N)C2c1coc2ccccc2c1=O (stereo not drawn) |  | inconclusive: 31.6 µM [inhibitor, single point]
CC(=O)Cc1nsc(NC(=O)c2cn(-c3ccccc3)nc2-c2ccc(Br)cc2)n1 | inactive: -17% | 
Cc1ccc(Cc2nc(-c3cccnc3)no2)cc1 | inactive: 6.82% | 
CCSC1=C(C#N)C(=O)n2c1cc1c2CCCC1 |  | active: 25.1 µM
COCCNC(=S)N(Cc1cccnc1)Cc1ccc(OC)c(OC)c1 |  | inconclusive: 8.91 µM [inhibitor, single point]
CCOC(=O)c1c(NC(=O)Cc2cccs2)sc(C)c1C |  | inconclusive: 39.8 µM [inhibitor, partial curve, poor fit]
Cc1ccc(Nc2nc(C(=O)NCc3ccco3)cs2)cc1 |  | inconclusive: 22.4 µM [inhibitor, single point]
Cc1ccc(S(=O)(=O)Nc2cc3c(cc2N2CCOCC2)n(C)c(=O)n3C)c(C)c1 | inactive: -10.1% | 

SMILES | activity, negative = inhibition | Potency
CCCCCNC(=O)C(=O)NCC(c1ccc2c(c1)OCO2)N1CCOCC1 (stereo not drawn) | inactive: -2.08% | 
Cc1ccc(CSc2nc(=O)c3c(n2C)NC(=O)CC3c2ccc(OC(C)C)cc2)cc1 (stereo not drawn) |  | inconclusive: 39.8 µM [inhibitor, single point]
CCOC(=O)C1=C(O)/C(=C/c2cc(OC)c(OC)c(OC)c2)N=C1C |  | inconclusive: 28.2 µM [inhibitor, single point]
COc1ccc(C(=O)/C(C)=N/O)cc1OC |  | inconclusive: 6.31 µM [inhibitor, single point]
CCOC(=O)/C(=C\c1c[nH]c2ccccc12)NC(C)=O | inactive: 5.81% | 
Cc1ccc(NC(=O)Cn2c(-c3ccc4c(c3)OCO4)cn(-c3ccccc3)c2=O)cc1 |  | inconclusive: 11.2 µM [inhibitor, partial curve]
CCOC(=O)C1=C(C)NC(=S)NC1c1ccc(-c2ccc(Cl)cc2)o1 (stereo not drawn) | inactive: -9.22% | 
CC1=NN(c2cccc(C(=O)O)c2)C(=O)/C1=C\C=C\c1ccco1 |  | active: 14.1 µM
C=C(C)CN(CC)c1nc(N)c2c(N)nc3c(c2c1C#N)CC(=O)N3C12CC3CC(CC(C3)C1)C2 |  | inconclusive: 15.8 µM [inhibitor, partial curve]
CCCc1cc(=O)[nH]c(SCC(=O)CSc2nc(CCC)cc(=O)[nH]2)n1 |  | active: 15.8 µM
COc1ccc(CNC(=O)CC2N=C3c4ccccc4N=C(SCC(=O)Nc4ccc(N(C)C)cc4)N3C2=O)cc1 (stereo not drawn) |  | inconclusive: 17.8 µM [inhibitor, partial curve]
Cc1cccc(N2C(S)=C(C#N)C(=O)NC2c2cccs2)c1 (stereo not drawn) |  | active: 31.6 µM
O=C(CSC1=NCCS1)Nc1ccccc1F |  | inconclusive: 39.8 µM [inhibitor, single point]
O=c1[nH]c(Nc2ccccc2)cc2ccccc12 |  | inconclusive: 6.31 µM [inhibitor, partial curve]
Cc1cc(C)n(/N=C/c2c[nH]c3ccccc23)c(=O)c1 | inactive: -9.74% | 
O=C(Nc1ccccc1)c1ccc(-c2ccc(F)cc2)s1 |  | inconclusive: 22.4 µM [activator, partial curve, poor fit]
COc1ccccc1N1CCN(C(=O)c2oc3cc(C)cc(C)c3c2C)CC1 |  | inconclusive: 14.1 µM [inhibitor, single point]
Cc1cc(/C=N/Nc2ccc([N+](=O)[O-])cn2)c(C)n1-c1ccccc1 |  | active: 3.55 µM
COc1ccccc1N1CCN(C(=S)Nc2ccc3nc(N4CCOCC4)cc(C)c3c2)CC1 |  | inconclusive: 31.6 µM [inhibitor, partial curve]
COc1cc(CN(C(=O)COc2ccc(C)c(C)c2)c2ccccn2)cc(OC)c1OC | inactive: 1.2% | 
COc1cccc(C(=O)Nc2nnc(-c3cccs3)o2)c1 | inactive: -6.15% | 
COc1cnc(-c2ccccn2)nc1Sc1ccc(C)cc1 |  | inconclusive: 31.6 µM [inhibitor, single point]
CCC1OC23CCCCC2C(C#N)(C(=N)O3)C1(C#N)C#N (stereo not drawn) |  | inconclusive: 28.2 µM [inhibitor, single point]
